According to paper PMC10141620 (Viruses, 2023):
Where two headings read alike, the source gives them in different places.

Assays:
[1] = system: SARS-CoV-2 Omicron (BA.4/BA.5) pseudovirus; assay: organism not typed; type: cell-based; settings: mean ± SD (n = 3)
[2] = system: SARS-CoV-2 Delta (B.1.617.2) pseudovirus; assay: organism not typed; type: cell-based; settings: mean ± SD (n = 3)
[3] = system: SARS-CoV-2 Omicron (B.1.1.529/BA.1) pseudovirus; assay: organism not typed; type: cell-based; settings: mean ± SD (n = 3)
Caco-2 cells = settings: 10 µM, 2 hours, pH 7.4/7.4
[4] = 293T/ACE2 cells, read-out: SARS-CoV-2 IC50, Omicron (BA.4/BA.5)
[5] = A549/ACE2/TMPRSS2 cells, read-out: SARS-CoV-2 IC50, Omicron (BA.4/BA.5)
[6] = Calu-3 cells, read-out: SARS-CoV-2 Omicron BA.4/BA.5 IC50

Structure (SMILES) | IC50 [1, 4] [µM] | IC50 [1, 5] [µM] | IC50 [1, 6] [µM] | IC50 ([2]; 293T/ACE2 cells) [µM] | IC50 ([2]; A549/ACE2/TMPRSS2 cells) [µM] | Metabolic stability (human liver microsomes) Clint | IC50 ([3]; 293T/ACE2 cells) [µM] | IC50 ([3]; A549/ACE2/TMPRSS2 cells) [µM] | Caco-2 permeability (mean Papp) A-to-B (Caco-2 cells) | Caco-2 permeability (mean Papp) B-to-A (Caco-2 cells)
Cc1cc2nc3s/c(=C/c4ccc(-c5cccc(C(=O)O)c5)o4)c(=O)n3c2cc1C [NBCoV63] | 0.034 ± 0.001 | 0.026 ± 0.0005 | 0.126 ± 0.005 | 0.084 ± 0.0005 | 0.105 ± 0.001 | low-clearance compound | 0.096 ± 0.011 | 0.06 ± 0.003 | low | low
Cc1cc(C)c2nc3s/c(=C\c4ccc(-c5ccc(Cl)c(C(=O)O)c5)o4)c(=O)n3c2c1 [NBCoV37] | 0.082 ± 0.008 | 0.215 ± 0.01 | 0.583 ± 0.035 | 0.267 ± 0.023 | 0.13 ± 0.035 |  | 0.135 ± 0.003 | 0.0425 ± 0.001 |  | 
O=C(O)c1cc(-c2ccc(/C=c3\sc4nc(=O)c5c6c(sc5n4c3=O)CCCC6)o2)ccc1Cl [NBCoV36] | 0.181 ± 0.012 | 0.31 ± 0.021 | 0.565 ± 0.079 | 0.802 ± 0.143 | 0.332 ± 0.026 |  | 0.368 ± 0.09 | 0.129 ± 0.002 |  | 
Cc1ccc2nc3s/c(=C/c4coc(-c5ccc(Cl)c(C(=O)O)c5)c4)c(=O)n3c2c1 [NBCoV35] | 0.094 ± 0.006 | 0.17 ± 0.013 | 0.52 ± 0.027 | 0.335 ± 0.005 | 0.236 ± 0.006 |  | 0.173 ± 0.03 | 0.201 ± 0.038 |  | 
